Assay [1] has as its target GST-fused CNOT8 (mouse), Q9D8X5. The assay is described as follows: pull-down; E. coli extracts expressing GST-fused CNOT proteins mixed with 1–5 mg purified MBP fusion, 2 h at 4°C, then glutathione-sepharose 4FF; 25 mM HEPES-KOH pH 7.4, 150 mM NaCl, 0.1% NP-40; washed with binding buffer supplemented with 350 mM NaCl; anti-MBP western blotting; only the binder purified. The following applies: remark: other sources report otherwise.

Assay [2] concerns the target GST-fused CNOT7 (mouse), Q60809. Described as above. The following applies: remark: other sources report otherwise.

These are yes or no findings as the source states them, for the method shown. In cells and extracts the contact can be indirect. Where a sequence is shown, tags or fusion partners need not be part of it.

B1: MBP-NANOS2, P60322 1-136 (protein)
chain: MDLPPFDMWRDYFNLSQVVMDIIQSRKQRQEGEVAEEPNSRPQEKSEQDLEGYPGCLPTICNFCKHNGESRHVYTSHQLKTPEGVVVCPILRHYVCPLCGATGDQAHTLKYCPLNSSQQSLYRRSGRNSAGRRVKR
Take B1: the binding entry in assay [1] and in assay [2] was “no binding (tested: 1–5 mg of MBP-NANOS2)” in each case.
